Screen size: about 310,000 compounds; about 2,200 (0.71%) showed an effect of 50% or more. Effects have a minus sign here. This is one part of the list.
Target: human ether-à-go-go-related gene (hERG) potassium channel (human, UniProt Q12809)
Test: primary screen, population patch clamp on CHO cells stably expressing hERG

Sequence of human ether-à-go-go-related gene (hERG) potassium channel (Q12809 whole entry, looked up): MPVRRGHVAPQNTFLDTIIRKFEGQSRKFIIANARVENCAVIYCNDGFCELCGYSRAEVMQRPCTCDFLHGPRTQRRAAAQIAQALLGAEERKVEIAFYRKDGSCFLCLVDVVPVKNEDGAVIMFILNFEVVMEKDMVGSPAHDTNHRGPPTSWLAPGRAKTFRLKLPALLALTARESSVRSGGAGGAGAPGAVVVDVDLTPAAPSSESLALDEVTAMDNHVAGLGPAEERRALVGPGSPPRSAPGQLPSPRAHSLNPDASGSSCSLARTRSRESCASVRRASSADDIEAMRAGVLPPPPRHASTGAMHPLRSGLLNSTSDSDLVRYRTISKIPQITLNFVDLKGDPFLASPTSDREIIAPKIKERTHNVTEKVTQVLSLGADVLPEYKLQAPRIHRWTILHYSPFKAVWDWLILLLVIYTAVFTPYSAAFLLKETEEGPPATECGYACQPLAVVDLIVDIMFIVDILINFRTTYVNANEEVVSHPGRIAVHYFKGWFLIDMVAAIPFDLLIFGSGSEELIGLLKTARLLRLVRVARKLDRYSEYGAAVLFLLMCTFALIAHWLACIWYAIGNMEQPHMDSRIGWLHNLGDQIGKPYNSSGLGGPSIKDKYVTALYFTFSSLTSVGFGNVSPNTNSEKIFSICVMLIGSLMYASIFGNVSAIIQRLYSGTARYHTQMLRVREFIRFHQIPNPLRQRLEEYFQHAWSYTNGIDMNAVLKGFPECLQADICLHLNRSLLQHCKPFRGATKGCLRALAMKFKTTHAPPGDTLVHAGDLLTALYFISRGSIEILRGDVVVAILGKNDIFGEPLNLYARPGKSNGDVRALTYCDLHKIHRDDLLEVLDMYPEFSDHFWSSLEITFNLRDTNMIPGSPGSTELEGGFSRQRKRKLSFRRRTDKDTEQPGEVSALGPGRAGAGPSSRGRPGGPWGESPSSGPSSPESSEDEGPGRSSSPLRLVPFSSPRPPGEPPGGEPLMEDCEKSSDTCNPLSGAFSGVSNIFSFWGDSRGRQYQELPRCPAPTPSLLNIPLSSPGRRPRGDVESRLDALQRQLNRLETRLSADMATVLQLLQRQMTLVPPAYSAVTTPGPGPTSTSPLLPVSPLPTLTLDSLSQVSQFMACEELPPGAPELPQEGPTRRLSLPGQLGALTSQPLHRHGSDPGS

Compound | hERG current change (%, negative = inhibition) at 1uM [%]
C/C(Cn1cnc([N+](=O)[O-])n1)=N\NC(=O)c1cccnc1 | 8.82
CCc1cc2cccc(C)c2nc1SCC(=O)NC1CCCC1 | 6.21
COc1ccc(F)cc1CN1CCN(CC(=O)Nc2ccccc2C(=O)NC2CC2)CC1 | -88.8
CCOC(=O)c1cc(-c2ccccc2)sc1NC(=O)CC(C)C | 1.47
CCC1(C)N=c2c(c(=O)n(C)c(=O)n2C)=NO1 (stereo not shown) | -10.7
CCOc1ccc(S(=O)(=O)N(C)c2ccc(OCC(=O)Nc3ccc4[nH]c(=O)[nH]c4c3)cc2)cc1 | 15.3
COC(=O)C1(S(=O)(=O)c2cccc3nsnc23)CC1 | 10.3
CC(O)c1nc2ccccc2n1CC(=O)Nc1ccc(F)cc1Cl (stereo not shown) | 10.3
CCC(C)N(CC(=O)Nc1cccc(C)c1C)C(=O)CCl (stereo not shown) | -0.274
Cc1ccc(NC(=O)N(Cc2nc3ccccc3c(=O)[nH]2)Cc2cccs2)cc1 | 5.74
CCCCCC1C/C(=N\O)C=C(C)C1C(=O)OC (stereo not shown) | 13.4
COC(=O)CNC(=O)C1CCN(S(=O)(=O)c2cnc[nH]2)CC1 | 9.77
COC(=O)c1cc(Cc2ccc(N)c(C(=O)OC)c2)ccc1N | 10.2
CC(C)(C)OC(=O)N1CSC[C@H]1C(=O)NC[C@H](CC(=O)O)c1ccc(Cl)cc1 | 13.8
Cc1ccc(S(=O)(=O)c2nnn3c2nc(N2CCC(C(N)=O)CC2)c2ccccc23)cc1C | 6.73
NC(=O)CSc1ncnc2c1cnn2Cc1ccccc1 | 9.35
Cc1ccc(NC(=O)c2cccs2)cc1S(=O)(=O)Nc1cccc(Cl)c1 | 7.95
Cc1cc(Cn2ccnc2)c(C)c([N+](=O)[O-])c1Cn1ccnc1 | -4.61
CCOc1ccc2nc(SC3CC(=O)N(c4ccc(OC)cc4OC)C3=O)sc2c1 (stereo not shown) | 6.38
Cc1ccc(S(=O)(=O)N2CCN(S(=O)(=O)c3ccc(C)cc3)C3OCCOC32)cc1 (stereo not shown) | 4.18
O=C1/C(=C/c2ccccc2)SC(=S)N1N1C(=O)C2CC2C1=O (stereo not shown) | 8.24
COC(=O)c1cc2c(s1)-c1ccc(OC)cc1CC2 | 15.8

Compound | hERG current change (%, negative = inhibition) at 1uM [%]
CCOC(=O)/C(=N/Nc1ccccc1OC)N1CCCc2ccccc21 | 8.83
O=C(COc1ccccc1)Nc1cccc(-c2ccc(N3CCOCC3)nn2)c1 | 7.22
CN(C)c1nc(N(C)C)n(C(=O)c2ccc(F)cc2)n1 | 11.4
O=[N+]([O-])c1ccccc1S(=O)(=O)Nc1ccn(Cc2c(F)cccc2Cl)n1 | 10.3
Cc1c(C)n2c(SCC(=O)N3CCCCCC3)nnc2[nH]c1=O | 19.6
CCCCCn1c(CNC(=O)CCC)nc2ccccc21 | -12.4
Cc1ccc(NC(=O)Cn2c(=O)oc3ccccc32)cc1Cl | 14.8
O=[N+]([O-])c1ccc2c(c1)C(N1CCOCC1)/C(=C/COc1ccc(Cl)cc1Cl)O2 (stereo not shown) | 11.2
O=S(=O)(Nc1ccccc1Br)c1cccs1 | 9.87
COc1ccc(S(=O)(=O)N2CCC(N3CCN(Cc4ccccc4)CC3)CC2)cc1.O=C(O)C(=O)O | -14.4
CC1CCN(S(=O)(=O)c2ccc(NC(=O)Cc3cccs3)cc2)CC1 | 10.4
CCN=C1Cn2c(nc3scc(-c4ccccc4)c3c2=O)CN1CC | -2.4
CCNC(=O)C1CCCN1S(=O)(=O)c1ccc(C)cc1 (stereo not shown) | 14
Cc1ccc(SCCC(=O)OCn2nnc3ccccc3c2=O)cc1 | 19.6
CC1CCCCC12NC(=O)N(CC(=O)N(C)Cc1nc3ccccc3c(=O)[nH]1)C2=O (stereo not shown) | 3.81
COc1ccc(-c2cc(C)no2)cc1S(=O)(=O)N1CCOc2ccccc21 | 8.79
CCc1ccc(NC(=S)N(CCCN2CCN(C)CC2)Cc2cccs2)cc1 | -22.9
CCOc1ccccc1CNC(=O)C1CCN(C(=O)c2sccc2-n2cccc2)CC1 | 3.71
Cl.OCCNc1nc(NCc2ccccc2)c2ccccc2n1 | -16
COc1ccc(C(=O)NCCc2nnc3ccc(SCC(=O)NCc4ccc(F)cc4)nn23)cc1 | 12.7
Cc1cccc(OCC(=O)NCC(=O)N/N=C/c2cccs2)c1 | 6.98

Reference: PMC4336329 (PLoS ONE, 2015)
